This data set in a line: xn = mol fraction of the nth substance listed. The settings on record: 101 kPa, x1 = 0.3333.

Each structure is given as a SMILES string. Some of these densities may be calculated back from excess volumes.

For `CC[n+]1ccn(C)c1.N#C[S-]` + CS(C)=O, the mass density runs as follows: (283.15 K) 1124.5 kg/m3; (288.15 K) 1120.4 kg/m3; (298.15 K) 1112.2 kg/m3; (303.15 K) 1108.1 kg/m3; (313.15 K) 1099.9 kg/m3; (318.15 K) 1095.8 kg/m3. Besides, the mass density (323.15 K) is recorded as 1091.7 kg/m3; the mass density (333.15 K) came to 1083.5 kg/m3; the mass density (338.15 K) was 1079.4 kg/m3; the mass density (343.15 K) came out at 1075.3 kg/m3; the mass density (348.15 K) is recorded as 1071.2 kg/m3; the mass density (353.15 K) turned out to be 1067.1 kg/m3.
The compound `CCOS(=O)(=O)[O-].CC[n+]1ccn(C)c1` + CS(C)=O returned a mass density (283.15 K) of 1159 kg/m3; a mass density (298.15 K) of 1145.8 kg/m3; a mass density (303.15 K) of 1141.4 kg/m3; a mass density (308.15 K) of 1137 kg/m3; a mass density (318.15 K) of 1128.2 kg/m3; a mass density (323.15 K) of 1123.8 kg/m3. The compound further gave a mass density (328.15 K) of 1119.4 kg/m3; a mass density (333.15 K) of 1115 kg/m3; a mass density (338.15 K) of 1110.5 kg/m3; a mass density (343.15 K) of 1106.1 kg/m3; a mass density (353.15 K) of 1097.3 kg/m3.

By mass density is commonly meant the mass of a sample divided by its volume.

The values are drawn from a compilation of properties of binary mixtures (doi:10.1016/j.fluid.2022.113559).
